Results reported in the supplement of paper PMC8728848.
The other results are listed elsewhere or left out.

Columns and labels:
Assay in all cases: glycan array binding signal (z-score within array); higher = stronger binding
Settings in all cases: glycan notation: IUPAC condensed, linker removed; mutation: Y228W
[1] = target: Man(a1-2)Man(a1-3)[Man(a1-2)Man(a1-6)]Man
Summary of the method: (§1)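 The binding signal is a Z-score computed within each array and averaged over linkers. Arrays of the same protein sequence at different concentrations or buffers were also averaged together. Data originate from 3228 arrays in the Consortium for Functional Glycomics database, kept only where the protein sequence was available.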

[2] = target: Man(a1-2)Man(a1-3)[Man(a1-2)Man(a1-6)]Man(a1-6)[Man(a1-2)Man(a1-2)Man(a1-3)]Man
Summary of the method: as §1

[3] = target: Man(a1-2)Man(a1-3)[Man(a1-2)Man(a1-6)]Man(a1-6)[Man(a1-2)Man(a1-2)Man(a1-3)]Man(b1-4)GlcNAc(b1-4)GlcNAc
Summary of the method: as §1

[4] = target: Man(a1-2)Man(a1-3)[Man(a1-6)]Man(a1-6)[Man(a1-2)Man(a1-3)]Man(b1-4)GlcNAc(b1-4)GlcNAc
Summary of the method: as §1

[5] = target: Man(a1-2)Man(a1-6)[Man(a1-3)]Man(a1-6)[Man(a1-2)Man(a1-2)Man(a1-3)]Man
Summary of the method: as §1

[6] = target: Man(a1-2)Man(a1-6)[Man(a1-3)]Man(a1-6)[Man(a1-2)Man(a1-2)Man(a1-3)]Man(b1-4)GlcNAc(b1-4)GlcNAc
Summary of the method: as §1

[7] = target: Man(a1-3)[Man(a1-6)]Man
Summary of the method: as §1

[8] = target: Man(a1-3)[Man(a1-6)]Man(a1-6)[Man(a1-2)Man(a1-3)]Man(b1-4)GlcNAc(b1-4)GlcNAc
Summary of the method: as §1

[9] = target: Man(a1-3)[Man(a1-6)]Man(a1-6)[Man(a1-3)]Man
Summary of the method: as §1

[10] = target: Man(a1-3)[Man(a1-6)]Man(a1-6)[Man(a1-3)]Man(b1-4)GlcNAc(b1-4)GlcNAc
Summary of the method: as §1

[11] = target: Man(a1-3)[Man(a1-6)]Man(b1-4)GlcNAc(b1-4)GlcNAc
Summary of the method: as §1

[12] = target: Man(a1-3)[Man(a1-6)]Man(b1-4)GlcNAc(b1-4)[Fuc(a1-6)]GlcNAc
Summary of the method: as §1

[13] = target: Man(a1-6)Man
Summary of the method: as §1

[14] = target: Man(b1-4)GlcNAc
Summary of the method: as §1

[15] = target: MurNAc(b1-4)GlcNAc
Summary of the method: as §1

[16] = target: Neu5Ac(a2-3)Gal
Summary of the method: as §1

[17] = target: Neu5Ac(a2-3)Gal(b1-3)GalNAc
Summary of the method: as §1

[18] = target: Neu5Ac(a2-3)Gal(b1-3)GalNAc(b1-3)Gal(a1-4)Gal(b1-4)Glc
Summary of the method: as §1

[19] = target: Neu5Ac(a2-3)Gal(b1-3)GalNAc(b1-4)Gal(b1-4)Glc
Summary of the method: as §1

[20] = target: Neu5Ac(a2-3)Gal(b1-3)GalNAc(b1-4)[Neu5Ac(a2-3)]Gal(b1-4)Glc
Summary of the method: as §1

[21] = target: Neu5Ac(a2-3)Gal(b1-3)GalNAc(b1-4)[Neu5Ac(a2-8)Neu5Ac(a2-3)]Gal(b1-4)Glc
Summary of the method: as §1

[22] = target: Neu5Ac(a2-3)Gal(b1-3)GalNAc6S
Summary of the method: as §1

[23] = target: Neu5Ac(a2-3)Gal(b1-3)GlcNAc
Summary of the method: as §1

[24] = target: Neu5Ac(a2-3)Gal(b1-3)GlcNAc(b1-2)Man
Summary of the method: as §1

[25] = target: Neu5Ac(a2-3)Gal(b1-3)GlcNAc(b1-2)Man(a1-3)[GlcNAc(b1-4)][Neu5Ac(a2-3)Gal(b1-3)GlcNAc(b1-2)Man(a1-6)]Man(b1-4)GlcNAc(b1-4)GlcNAc
Summary of the method: as §1

[26] = target: Neu5Ac(a2-3)Gal(b1-3)GlcNAc(b1-2)Man(a1-3)[Neu5Ac(a2-3)Gal(b1-3)GlcNAc(b1-2)Man(a1-6)]Man(b1-4)GlcNAc(b1-4)GlcNAc
Summary of the method: as §1

[27] = target: Neu5Ac(a2-3)Gal(b1-3)GlcNAc(b1-2)[Neu5Ac(a2-3)Gal(b1-3)GlcNAc(b1-4)]Man(a1-6)[Neu5Ac(a2-3)Gal(b1-3)GlcNAc(b1-2)Man(a1-3)]Man(b1-4)GlcNAc(b1-4)GlcNAc
Summary of the method: as §1

[28] = target: Neu5Ac(a2-3)Gal(b1-3)GlcNAc(b1-3)Gal(b1-3)GlcNAc
Summary of the method: as §1

[29] = target: Neu5Ac(a2-3)Gal(b1-3)GlcNAc(b1-3)Gal(b1-4)GlcNAc
Summary of the method: as §1

[30] = target: Neu5Ac(a2-3)Gal(b1-3)GlcNAc(b1-3)GalNAc
Summary of the method: as §1

B1: Epa1-NP-mutant-Y228W (Candida glabrata), Q6VBJ0 (protein)
chain: MILNPALFLNKCVCIYTTLILLLLTNGGYATSSNDISLASKDPTTFPLGCSPDITTPKKGLSMELYSYDFRKKGSYPCWDAAYLDPNYPRTGYKSHRLLAKVDGVTGNINFYYHATKGCTPQLGHLPASYNYPKPLTMTNFTMLLYGYFRPKVTGFHTFTISADDLLFVNFGAGNAFDCCRRDSSADHFGNYQAYAIWGSKTAKDELTVHLDAGVYYPIRLFYNNREWDGALSFTFKTESNENTVSDFSEYFFSLDDTEEGCPGLISYDSSCASVKTSKIIGIDYHTETPNENLVPITKTIYHLGIPCTGTTTTPLCGSGFYDPLANKCVTINTSSTSSVTKTTSHTTSKEVSFHSSISSQKTLIPKSIPSPYGPIKSQSIPTEMETSSEISSSEYAFSDVISTPSHSPYTKKHSSLNSSSYTSTVIHSLTSYSISQGIFSTSLSEQNITSKSSTDKFSTATSMSNNITQSSIIISQFSTNNENYTTTSMHTSSDKISTETLNNSISTTTSILFSNSSTILKNNTTIISSDKDTHYHPVNPTIVCSTNKTEIICASITQPSISNSNNHWSSSVLKFNSTTVRSTLPSSAGSNETSINVPFSSSTESNTSTSSTSTSNSKMVRSTLPSSAGSNETSISVPFSSSTESNTSTSSTSTSNSKMVRSTLPSSAGSNETSINVPFSSSTESNTSTSSTSTSNSKTVRSTPFSSAGIIMTSLSQRNNKSASSYASSNSKCYNTADSCRKVHSTPSYLLTSSYTSEGVDYDCSLVSTKLKINDTNCVNNKHTTKSCLKTSVTTTIPTLEIKTARKSSSNTIGLHSYPTSSPNKSISSAPIIGYISSFKTIKTASPSYQTSDLTTITTITSLNNPGSTAVENTHESNDKSRKTSSNDISSKHSVIKETKDAVESSNKSHQTNTLKCSSIIIASSSHNSYESLGGTTLTLTLSKVYSPQNNDTLPFLEISEVNPSRTVLPESSKMMQYLTSTEERNKTARNTIATNIVSISTFHFEGEGNAIRMGYTQLLLMLIGIIVMNIGT
[1]
  glycan array binding signal (z-score): -0.495
[2]
  glycan array binding signal (z-score): -0.267
[3]
  glycan array binding signal (z-score): -0.382
[4]
  glycan array binding signal (z-score): -0.004
[5]
  glycan array binding signal (z-score): -0.337
[6]
  glycan array binding signal (z-score): -0.28
[7]
  glycan array binding signal (z-score): -0.183
[8]
  glycan array binding signal (z-score): -0.291
[9]
  glycan array binding signal (z-score): -0.095
[10]
  glycan array binding signal (z-score): -0.275
[11]
  glycan array binding signal (z-score): -0.221
[12]
  glycan array binding signal (z-score): -0.007
[13]
  glycan array binding signal (z-score): -0.361
[14]
  glycan array binding signal (z-score): 0.004
[15]
  glycan array binding signal (z-score): 0.201
[16]
  glycan array binding signal (z-score): 0
[17]
  glycan array binding signal (z-score): -0.292
[18]
  glycan array binding signal (z-score): -0.219
[19]
  glycan array binding signal (z-score): -0.22
[20]
  glycan array binding signal (z-score): -0.165
[21]
  glycan array binding signal (z-score): -0.3
[22]
  glycan array binding signal (z-score): -0.312
[23]
  glycan array binding signal (z-score): 0.052
[24]
  glycan array binding signal (z-score): -0.329
[25]
  glycan array binding signal (z-score): -0.322
[26]
  glycan array binding signal (z-score): -0.117
[27]
  glycan array binding signal (z-score): -0.103
[28]
  glycan array binding signal (z-score): -0.516
[29]
  glycan array binding signal (z-score): -0.166
[30]
  glycan array binding signal (z-score): -0.104
